PubChem BioAssay AID1508624 (National Center for Advancing Translational Sciences (NCATS), 2021)
The whole screen tested about 48,000 compounds, of which about 120 (0.25%) were called active. Another 4% or so got no clear call; they are omitted. The call rests on the fitted dose curve; in most records, active means well fitted activation curve with a large enough effect; inconclusive means small, poorly fitted or top-dose-only effect, or another doubt; inactive means no such curve, though single readings can be large or run the other way. The list shows a part of the results.

experiment: Primary qHTS for Identification of Small Molecule Activators of Huntingtin-Antisense Promoter Activity; conditions: HEK293 HTT-AS promoter firefly luciferase reporter (activity 0% = vehicle and -100% = no light), 24 h; series mostly up to 57.5 µM; activity change, positive = activation: at the top concentration; further: nearly all actives have a fitted effect of over 55% in size
In short: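 HEK293 Fluc reporter, 2,500 cells/well, 24 h pre-culture; cpds up to 57.5 uM final, 24 h 37 degrees C; Dual-Glo, 10 min RT; normalized vehicle = 0%, zero RLU = -100%.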

Activity change, positive = activation, inactive:
Cc1cccc(NC(=O)CSc2nc3c(oc4ccccc43)c(=O)n2Cc2ccco2)c1 -8.75%
C=C[C@H]1CN2CC[C@H]1C[C@H]2[C@H](O)c1ccnc2ccc(OC)cc12 -3.02%
CC(C)C(=O)Nc1ccc2nc(SCC(=O)N3CCOCC3)sc2c1 1.03%
Cc1cc(NS(=O)(=O)c2ccc3nc(-c4ccccc4)[nH]c3c2)ccc1Br -35.6%
Cc1ccc(C)n1-c1nnc(N2CCC(C(=O)NCc3ccc(F)cc3)CC2)s1 0.126%
CCOC(=O)c1c(N)n(-c2ccccc2CC)c2nc3ccccc3nc12 -8.36%
Cc1ccc(N2CC(c3nnc(NC(=O)c4ccco4)s3)CC2=O)cc1Cl (centres undefined) -3.24%
O=S(=O)(c1ccc(Br)cc1)c1nnn2c1nc(NC1CCCCCC1)c1sccc12 -13.2%
COc1ccc(-c2cn3cccnc3n2)cc1NC(=O)c1c(F)cccc1F -7.06%
COc1cccc(CNC(=O)C2CCN(S(=O)(=O)c3ccc4c(ccn4C)c3)CC2)c1 -20.9%
CSc1ccc(C2c3[nH]c4ccccc4c3CCN2C(=O)CCc2ccccc2)cc1 (centres undefined) -38%
COc1cc(Cl)c(C)cc1NC(=O)CCn1c(=O)c2cccn2c2cccnc21 -6.22%
CC(C)c1nc2ccc(C(=O)NCc3ccc(N(C)C)cc3)cc2o1 11.3%
Cc1ccc(-n2nc3c(=O)n(CCCC(=O)NCCc4ccccc4)nc(C)c3c2C)cc1 14.1%
Cc1cccc(CCNC(=O)CCS(=O)(=O)c2cc3c(cc2Cl)NC(=O)CO3)c1 -18.7%
COc1ccc(C)cc1Nc1nc2ccccc2c2nnc(C)n12 -16%
COC(=O)c1cc2occc2n1CC(=O)Nc1cccc(SC)c1 8.92%
O=S(=O)(NCC(c1ccco1)N1CCN(c2ccc(F)cc2)CC1)c1ccccc1 (centres undefined) -18.8%
CC(=O)NCCCCCC(=O)O -0.246%
CCn1c(=N)c(C(=O)NCc2cccnc2)cc2c(=O)n3cc(C)ccc3nc21 -2.57%
COc1ccc(-c2nc(CSCC(=O)NCCc3ccc(C)cc3)c(C)o2)cc1OC -18.9%
CCCCN(Cc1ccccc1)S(=O)(=O)c1ccc2c(c1)CC(C)N2C(=O)CC (centres undefined) -40.4%
COc1ccccc1Cc1nc2ccccc2nc1SCC(=O)NCCc1ccccc1 -8.09%
CCN(CC)CCCNC(=O)c1c(C)oc2ncnc(N3CCOCC3)c12 4.06%
CN(C(=O)CSc1nc2ccccc2n1CC(=O)NCc1ccc(F)cc1)c1ccc(F)cc1 -4.94%
CCOC(=O)Cn1cc2c(c1-c1ccc(Cl)cc1)c(=O)n(C)c(=O)n2C 1.61%
CCc1noc2nc(C)n(CC(=O)O)c(=O)c12 -0.145%
Cc1c(C(=O)NCc2ccc(Cl)cc2)sc2nc3n(c(=O)c12)CCCC3 -5.07%
O=c1n(CCCN2CCN(c3cccc(Cl)c3)CC2)nc2ccccn12
CCOc1ccc(CNC(=O)c2ccc(NC(=O)c3nsc4ccccc34)cc2)cc1 -32.8%
CCC(=O)Nc1sc2c(c1C(=O)Nc1ccccc1C)CCC(C)C2 (centres undefined) -32%
Cn1c(=O)c2sccc2n2c(CCC(=O)N3CCN(c4ccccc4)CC3)nnc12 -14.7%
O=C(O)c1cc(=O)[nH]c(=O)[nH]1
Cc1nc(N)nc(N)c1-c1ccc(Cl)c(Cl)c1 -23%
CCC(Cc1ccccc1)NC(=O)c1oc(=O)c2ccccc2c1-c1ccccc1 (centres undefined) -7.72%
COC(=O)c1ccccc1NC(=O)c1noc2c1CSc1ccccc1-2 -7.1%
COc1ccc2nc(NC(=O)c3ccc(S(=O)(=O)N4CCC(C)CC4)cc3)sc2c1 -26.6%
CCc1ccc(NC(=O)N2CCN(Cc3cc(=O)n4nc(-c5ccccc5OC)sc4n3)CC2)cc1 1.41%
CCOC(=O)c1cccc(NC(=O)NCCc2c(C)nn(C)c2C)c1 1.44%
Cc1cccc(C)c1OCCCCn1c(C2CC(=O)N(c3ccc(F)cc3)C2)nc2ccccc21 (centres undefined) -58.3%
CCc1cccc2sc(N3CCN(C(=O)C4CC4)CC3)nc12 -21.4%
Cc1ccc2cccc(NC(=O)c3cccc4ccccc34)c2n1 -16%
O[C@@H](CNC[C@H](O)[C@H]1CCc2cc(F)ccc2O1)[C@@H]1CCc2cc(F)ccc2O1
CCN1C(=O)c2cccc3c(S(=O)(=O)Nc4ccc(O)c(C(=O)O)c4)ccc1c23 -4.08%
CC(C)(C)OC(=O)N1CCC(c2c(C(=O)N3CCc4ccccc4C3)cnn2-c2ccc(Cl)cc2)CC1 -24.9%
CCOc1ccccc1C(=O)N(Cc1ccc(N(C)C)cc1)CC1CCCO1 (centres undefined) -8.91%
Cc1cc(C)cc(C(=O)N2CC(=O)Nc3ccc(C)cc3C2c2ccccc2)c1 (centres undefined) -25.6%
CCCCNC(=O)CSc1nc2cc3c(cc2c(=O)n1CCCC(=O)NCc1ccc2c(c1)OCO2)OCO3 -14.4%
Cc1cccc(-n2c(=O)c3c(c4cc(C)ccc4n3C)n(CC(=O)Nc3ccccc3C(F)(F)F)c2=O)c1 -18.1%
c1ccc(C(c2cccs2)c2c[nH]c3ccccc23)cc1 (centres undefined) -29.9%
Cc1ccc(-c2noc(CN(C3CCCCC3)S(=O)(=O)c3ccc(Cl)cc3)n2)cc1 -1.95%
Cc1ccc(CNc2ncnc3c2c(-c2ccccc2)cn3-c2cccc(Cl)c2)cc1 3.37%
COc1ccc(-c2nc3n(n2)C(c2ccccc2F)C(C(=O)Nc2cccnc2)=C(C)N3)cc1OC (centres undefined) -7.71%
Oc1ccc(Cl)cc1Sc1cc(Cl)ccc1O -91.5%
CCCCN(C(=O)c1cccc(S(=O)(=O)N2CCCCC2)c1)C1CCS(=O)(=O)C1 (centres undefined) -4.67%
COCCCNC(=O)c1sc2ncccc2c1-n1cccc1 22.3%
COc1ccc(C2CC(=O)c3c([nH]c(C(=O)OC4CCC(C)CC4)c3C)C2)cc1OC (centres undefined) -21.7%
O=C(Nc1ccc(F)c(Cl)c1)N1CCN2CCCCC2C1 (centres undefined) 13.5%
CC(=O)c1ccc(NC(=O)Cn2nc(C(F)(F)F)c3c2CCC3)cc1 13.2%
Cc1ccc(CSc2c(C)cnc3c2c(=O)n(C)c(=O)n3C)cc1 -30.7%
O=C(Cn1ncc2c3ccccc3n(Cc3ccccc3)c2c1=O)NCc1cccs1 -2.39%
CCOC(=O)C1=C(CN2CCN(c3ccc(Cl)cc3)CC2)NC(=O)NC1c1ccc(OC)cc1 (centres undefined) -1.02%
CCc1nc2ccc(C(=O)N3CCN(c4ccccc4F)CC3)cc2nc1CC -26.8%
Cc1ccc(Cl)cc1N1CCN(C(=O)Cn2cnc3onc(-c4ccc(F)cc4)c3c2=O)CC1 -18.6%
CCCCNC(=O)CCC1N=C2c3ccccc3N=C(SCC(=O)NCCc3ccc(OC)c(OC)c3)N2C1=O (centres undefined) -5.34%
CCN(CC)CCNC(=O)CCn1c(=O)c2cccn2c2cccnc21 -8.95%
Cc1ccc(Cl)cc1NC(=O)Cn1c(=O)cc(C)c2c(C)nn(C)c21 1.69%
Cc1ccc(CNC(=O)CCNS(=O)(=O)c2ccc3c(c2)oc(=O)n3C)cc1 -12.8%
O=C(COc1ccc(Br)cc1Br)Nc1ccc(S(=O)(=O)Nc2ncccn2)cc1 -8.81%
Cc1cc(C)c(S(=O)(=O)Nc2ccc3oc(C)c(C(=O)OC(C)C)c3c2)cc1C -14.6%
Cc1oc(-c2cccc(Cl)c2)nc1CN1CCC(C(=O)NC(C)C)CC1 -6.36%
O=C(CCn1c(=O)c2sccc2n(Cc2ccc(F)cc2)c1=O)NCc1ccc2c(c1)OCO2 -7.89%
COc1cccc(C2CC(=O)Nc3c2c(=O)n(C)c2nc4ccccc4n32)c1OC (centres undefined) -22.6%
Cc1ccc(NC(=O)CC2Oc3ccc(C)cc3NC2=O)c(C)c1 (centres undefined) -19.2%
CCOc1ccc(NC(=O)Cn2c(=O)n(CCc3ccccc3)c(=O)c3c4c(sc32)CCCC4)cc1 -11.9%
COc1cccc(Nc2nnc(-c3cc4ccc(O)cc4oc3=O)s2)c1 -6.2%
CCN1CCN(c2ncc3c(n2)CCN(Cc2cc(Br)cs2)C3)CC1 -13.9%
CCC(C)NC(=O)c1cc2cc(S(=O)(=O)N3CCCCC3)ccc2n1C (centres undefined) -35.4%
Cc1c(O)nc(SCC(=O)Nc2ccc(Cl)cc2Cl)n(-c2ccc(F)cc2)c1=O -28.7%
Cc1nn(C)c2c1c(C(F)(F)F)cc(=O)n2CC(=O)NCc1ccc(OC(C)C)cc1 -31.2%
C[C@H](NC(=O)C(C#N)=Cc1cccc(Br)n1)c1ccccc1 -89.3%
CCC(C)c1ccc(OCC(=O)Nc2cccc3ccc(C)nc23)cc1 (centres undefined) -5.44%
Cc1cn(C)c(CC(=O)NCc2cccc(Cl)c2)c1C(=O)O -16.1%
C/C(=N/NC(=O)c1ccncc1)C(=O)O -0.0841%
CC(C)(C)c1ccc(S(=O)(=O)N2CCC(Oc3ccc(-n4cnnn4)cc3)CC2)cc1 -15.1%
COc1cc(Cn2c(=O)oc3ccc(C)cc32)ccc1OCCC(C)C -38.1%
CC(C)(C)c1ccc(CSC2=Nc3ccccc3C3=NC(CC(=O)NCc4cccs4)C(=O)N23)cc1 (centres undefined) -17.4%
Cc1ccc(CNS(=O)(=O)c2ccc(N3CCCCS3(=O)=O)cc2)cc1 -17.3%
O=C(CNC(=O)c1ccc(Cl)cc1)OCc1cc(=O)n2nc(C3CC3)sc2n1 -7.32%
O=C(CSc1nc2ccsc2c(=O)n1Cc1ccc(F)cc1)NCc1ccc(Cl)cc1 -20.8%
CN1c2ccc(Cl)cc2-c2nc(SCC(=O)NCc3ccc(F)cc3)ncc2S1(=O)=O 7.44%
CC1=C(C(=O)Nc2ccc(C)cc2C)C(c2ccccc2)n2nc(SCC(=O)c3ccc(C)cc3)nc2N1 (centres undefined) -1.52%
O=C1CCCc2cc(S(=O)(=O)NCC3CCC(C(=O)Nc4ccc(Cl)cc4)CC3)ccc2N1 (centres undefined) -21.2%
Cc1cc(Nc2ccc(Br)cc2)n2nc(-c3ccccc3C)nc2n1 -18.6%
CCc1ccccc1NC(=O)CCNS(=O)(=O)c1ccc2c(c1)CCCC(=O)N2 -6.91%
Oc1ccc(-c2nc(-c3ccc(F)cc3)c(-c3ccncc3)[nH]2)cc1 -45.6%
COc1ccc(NC(=O)Cn2c(=O)oc3ccccc32)cc1 -8.91%
CCc1ccccc1NC(=O)Cn1c(=O)n(Cc2ccco2)c(=O)c2ccccc21 -18.1%
COc1ccc(-c2c(C#N)c(SCC(=O)Nc3cccc(Cl)c3)nc(C)c2C(=O)Nc2ccccc2)cc1OC -4.44%
